Measurements: PubChem BioAssay AID1346428 (National Center for Advancing Translational Sciences (NCATS), 2018)
Values joined by “and” are separate entries in the source; they are usually repeats but may differ in a detail not shown here. Identical values can stand only once. Screen size: about 48,000 compounds; about 1,200 (2.5%) were called active. Another 2% or so got no clear call; they are omitted.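 How the source made its calls: active means activation of at least 60% and not above a set upper limit (about 1 call in 100 departs from these limits); inconclusive means activation of 40% to 60%, or above that upper limit; inactive means activation under 40%.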 Some of the results follow.

Each molecule was assayed against Probable G-protein coupled receptor 32 (Homo sapiens) (UniProt O75388) (assay: qHTS for Agonists of Human Resolvin D1 Receptor DRV1). Details: CHO-K1 GPR32 beta-arrestin PathHunter luminescence, 90 min; at 76.9 µM; hits give high values; zero percent set by DMSO-only wells.
Summary of the method: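 Engineered CHO-K1 line co-expressing GPR32-ProLink and EA-beta-arrestin. Compound treatment lasted 90 min at 37 °C. Luminescence was recorded after 1 h with substrate at ambient temperature, relative to DMSO basal wells.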
Further: 0% is about no effect.

Chain of UniProt O75388 (O75388 whole entry, looked up): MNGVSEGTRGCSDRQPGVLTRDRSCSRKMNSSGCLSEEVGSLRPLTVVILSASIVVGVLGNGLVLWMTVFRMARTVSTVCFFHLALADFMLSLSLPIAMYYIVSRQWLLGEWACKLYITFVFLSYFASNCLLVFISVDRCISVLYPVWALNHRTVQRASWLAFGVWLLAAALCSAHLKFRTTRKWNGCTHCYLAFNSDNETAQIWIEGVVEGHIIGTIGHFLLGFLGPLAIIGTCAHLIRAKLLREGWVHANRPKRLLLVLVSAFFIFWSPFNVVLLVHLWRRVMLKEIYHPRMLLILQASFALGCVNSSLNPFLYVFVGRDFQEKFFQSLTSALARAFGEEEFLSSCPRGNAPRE

Q: Which activation does the source give for Fc1ccc(-n2ncc3c(Nc4ccc(Oc5ccccc5)cc4)ncnc32)cc1 here?
A: inactive: 48.9%

Q: Which activation does the source give for Cc1cccc2c1-c1sc(C(=O)NCCCN3CCN(c4cccc(Cl)c4)CC3)cc1CO2 here?
A: inactive: 9.8%

Q: Which activation does the source give for COc1ccc(-c2noc(C(C)NC(=O)c3ccco3)n2)cc1 (stereo not drawn) here?
A: inactive: 8.48%

Q: For Cc1ccc(NC(=O)c2ccc(=O)n(CC(=O)Nc3cc(C)cc(C)c3)n2)cc1, which activation is on record?
A: inactive: -11.1%

Q: With COc1cc(C(c2c(C)[nH][nH]c2=O)c2c(C)[nH][nH]c2=O)ccc1OC(=O)c1ccccc1F as the molecule, how does the activation read?
A: inactive: -66.3%

Q: How did the activation turn out when CC(=O)Nc1cccc(-c2nnc(SCC(=O)c3cc([N+](=O)[O-])ccc3Br)o2)c1 was run?
A: inactive: -11.4%

Q: With CC(=O)c1cccc(Nc2c3c(nc4nc(-c5cccs5)nn24)CCCC3)c1 as the molecule, how does the activation read?
A: inactive: -35.5%

Q: CCCN1CCN(CCCNC(=O)c2cnn(-c3ccc(C)cc3)c2-n2cccc2)CC1 was tested. Which activation did it give?
A: inactive: -5.98%

Q: CC(=O)Nc1ccc(NC(=O)CSc2nnc3c4cc(Br)ccc4n(C)c3n2)cc1 was tested. Which activation did it give?
A: inactive: 3.69%

Q: For COC(=O)c1ccc2oc(=O)c(S(=O)(=O)c3ccc(C)cc3)cc2c1, which activation is on record?
A: inactive: -4.89%

Q: CCCC(=O)Nc1cccc(-c2nc3cc(C)c(C)cc3o2)c1C was tested. Which activation did it give?
A: inactive: 20.1%

Q: How did the activation turn out when Cc1ccc(CNC(=O)C2CCN(c3nc4ccc(C)cc4[nH]3)CC2)cc1 was run?
A: inactive: -23%

Q: With CC(C)c1ccc(Nc2cc(C(=O)NCCc3ccccc3)c3ccccc3n2)cc1 as the molecule, how does the activation read?
A: active: 84.9%

Q: For O=C(Cn1ncc2c3ccccc3n(Cc3ccc(Cl)cc3)c2c1=O)NCCCc1ccccc1, which activation is on record?
A: inactive: -0.0509%

Q: How did the activation turn out when COc1ccc(Nc2oc(-c3ccc(COc4ccc(OC)cc4)o3)nc2C#N)cc1 was run?
A: active: 71%

Q: Cc1ccc(C)c(S(=O)(=O)c2nnn3c2nc(N2CCCC2)c2sccc23)c1 was tested. Which activation did it give?
A: inactive: -22.6%

Q: How did the activation turn out when CCCCN(CC)c1ncnc2c1sc1nc(N3CCOCC3)c3c(c12)CCCC3 was run?
A: inactive: 1.81%

Q: CCc1ccccc1N1CC(c2nc3ccccc3n2CC(C)C)CC1=O (stereo not drawn) was tested. Which activation did it give?
A: inactive: -9.11%

Q: CCC(C)NC(=O)C1CCN(C(=O)c2cc3sccc3n2Cc2ccc(Cl)cc2)CC1 (stereo not drawn) was tested. Which activation did it give?
A: inactive: 7.14%

Q: With CC(C)(C)C1CCc2nc(NC(=O)COc3ccc(F)cc3)sc2C1 (stereo not drawn) as the molecule, how does the activation read?
A: inactive: 18.6%

Q: CCC(=O)Nc1ccccc1-c1nc2ccccc2n(C(CC)C(=O)Nc2cccc(C(C)=O)c2)c1=O (stereo not drawn) was tested. Which activation did it give?
A: inactive: -40.2%

Q: CCCCN(CC)CCCn1cnc2c([nH]c3ccc(Cl)cc32)c1=O was tested. Which activation did it give?
A: inactive: -3.75%

Q: Which activation does the source give for CC(C)(C)c1ccc(OCCSc2nc(-c3cccs3)nc3cc(=O)[nH]n23)cc1 here?
A: active: 67.9%

Q: Which activation does the source give for Cc1oc(-c2ccc(C(=O)Nc3ccc(F)cc3F)cc2)nc1COc1ccccc1 here?
A: inactive: -7.89%

Q: Which activation does the source give for CC(=O)Nc1ccc(-n2cc3c(c2-c2ccc(C)cc2)c(=O)n(C)c(=O)n3C)cc1 here?
A: inactive: -8.37%

Q: COc1cccc(-c2cc(C(=O)NCc3ccccc3)[nH]n2)c1 was tested. Which activation did it give?
A: inactive: -9.02%

Q: For CN(C)C(=O)c1ccc2c(c1)N(CC(=O)NCc1ccc(F)cc1)C(=O)C1CCCCN21 (stereo not drawn), which activation is on record?
A: inactive: -13.9%

Q: Cn1c(SCC(=O)Nc2ccc(F)cc2)nc2c([nH]c3ccccc32)c1=O was tested. Which activation did it give?
A: inactive: -15.8%

Q: How did the activation turn out when CCCC(=O)Oc1c(Sc2ccc(Cl)cc2)c(C)nn1-c1ccccc1 was run?
A: inactive: 8.29%

Q: How did the activation turn out when CCOc1nc(NC(=O)NS(=O)(=O)Oc2ccc(Cl)cc2)nc(-c2ccccc2)n1 was run?
A: inactive: 23.5%

Q: With Cn1cc(C(=O)O)c(=O)c2cc(S(=O)(=O)N3CCCCC3)ccc21 as the molecule, how does the activation read?
A: inactive: -16.3%

Q: For Cc1ccc(CN2C(=O)c3ccccc3S(=O)(=O)c3ccc(C(=O)OCC4CCCO4)cc32)cc1 (stereo not drawn), which activation is on record?
A: inactive: -27.7%

Q: Which activation does the source give for Cc1ccc(NC(=O)C(Cc2ccccc2)NS(=O)(=O)c2ccc3c(c2)c(=O)n(C)c(=O)n3C)cc1 (stereo not drawn) here?
A: inactive: -1.28%

Q: How did the activation turn out when CCN(C(=O)c1cc(S(=O)(=O)N2CCOCC2)cn1C)c1ccc(OC)cc1 was run?
A: inactive: -15.1%

Q: CCOc1ccc(C(C)C)cc1S(=O)(=O)Nc1cccc(-c2ccc(N3CCOCC3)nn2)c1 was tested. Which activation did it give?
A: inactive: -1.03%

Q: How did the activation turn out when CC(C)(C)c1ccc(OCC(=O)N(Cc2ccco2)Cc2ccccc2F)cc1 was run?
A: inactive: -15.7%

Q: How did the activation turn out when Cc1cccn2c(=O)c3cc(C(=O)NCCc4ccc(S(N)(=O)=O)cc4)n(C)c3nc12 was run?
A: inactive: -0.435%

Q: How did the activation turn out when COc1ccc(OC)c(C2C(C(N)=O)=C(C)Nc3nc(-c4cccc(Cl)c4)nn32)c1 (stereo not drawn) was run?
A: inactive: -24.9%

Q: Which activation does the source give for Cc1cc(C(C#N)c2ccc(Cl)cc2)c(Cl)cc1NC(=O)c1cc(I)cc(I)c1O (stereo not drawn) here?
A: inactive: 12.1%

Q: With Cc1ccc2c(c1)cc1c(=O)n(CC(=O)NCc3ccco3)nc(C)n12 as the molecule, how does the activation read?
A: inactive: -2.01%

Q: COc1ccc(CCNC(=O)CCn2c(=O)c3ccccc3n(CC(=O)Nc3cccc(C)c3)c2=O)cc1OC was tested. Which activation did it give?
A: inactive: 9.55%

Q: For CC(=O)c1ccc(NC(=O)Cn2c(-n3nc(C)cc3C)nc(C)cc2=O)cc1, which activation is on record?
A: inactive: -7.1%

Q: With COc1cc(OC)cc(-c2nnc(SCC(=O)N3CCC(C)CC3)o2)c1 as the molecule, how does the activation read?
A: inactive: 3.58%

Q: For COc1ccc2cc(-c3cn4c(n3)sc3cc(F)ccc34)c(=O)oc2c1, which activation is on record?
A: inactive: -6.23%

Q: With Cc1cccc(OCC(=O)N(Cc2cccc(Cl)c2)Cc2ccco2)c1C as the molecule, how does the activation read?
A: inactive: -2.88%

Q: CC(C)S(=O)(=O)c1oc(-c2ccc(F)cc2)nc1S(=O)(=O)c1ccc(F)cc1 was tested. Which activation did it give?
A: inactive: -0.656%

Q: How did the activation turn out when Cc1ccc(S(=O)(=O)c2nc(-c3ccccc3)oc2N2CCCCCC2)cc1 was run?
A: inactive: -20.9%

Q: Which activation does the source give for COc1ccc(/C=C/c2onc(C)c2S(=O)(=O)N2CCC(C(=O)N3CCC(C)CC3)CC2)cc1 here?
A: inactive: -18.8%

Q: With COc1cccc(C(=O)NCC(c2ccc(N(C)C)cc2)N2CCOCC2)c1OC (stereo not drawn) as the molecule, how does the activation read?
A: inactive: -3.85%

Q: How did the activation turn out when Cc1ccccc1CSc1nc(-c2ccccc2)nc2c1Cc1c(CO)cnc(C)c1O2 was run?
A: inactive: 8.96%

Q: How did the activation turn out when CCOC(=O)c1c(S(=O)(=O)N2CCCC(C(=O)Nc3cc(C)ccc3OC)C2)c(C)n(C)c1C (stereo not drawn) was run?
A: inactive: 34.2%

Q: For CC(C)CCNC(=O)N1CCN(S(=O)(=O)c2ccc3c(ccn3C)c2)CC1, which activation is on record?
A: inactive: -7.58%

Q: Which activation does the source give for CC1CCN(S(=O)(=O)c2ccc3c(c2)N(CC(=O)N2CCN(c4ccc(Cl)cc4)CC2)C(=O)CO3)CC1 here?
A: inactive: 18.3%

Q: Which activation does the source give for CCCCNC(=O)CCn1c(=O)c2ccccc2n(Cc2cc(C)ccc2C)c1=O here?
A: inactive: -4.28%

Q: How did the activation turn out when COc1cccc(C2=NN(C(C)=O)C(c3cn(-c4ccccc4)nc3-c3cccs3)C2)c1 (stereo not drawn) was run?
A: inactive: 7.31%

Q: For CCOc1ccc(CCNC(=O)CCc2cn(Cc3ccc(C)cc3)c3ccccc23)cc1, which activation is on record?
A: inactive: -33%

Q: How did the activation turn out when CC(C[N+](C)(C)C)OC(N)=O (stereo not drawn) was run?
A: inactive: -1.06% and inactive: 4.27%

Q: With O=C(c1ccc(CSc2nc3ccncc3n2Cc2ccccc2F)cc1)N1CCCCCC1 as the molecule, how does the activation read?
A: inactive: -2.7%

Q: CCCC(=O)Nc1nnc(SCc2cc(=O)c3cc(C)ccc3[nH]2)s1 was tested. Which activation did it give?
A: inactive: 44.9%

Q: Which activation does the source give for Cc1ccc(C)c(N2CCN(C(=O)c3cc(S(=O)(=O)N4CCCCC4)cn3C)CC2)c1 here?
A: inactive: -3.46%

Q: Which activation does the source give for COc1ccc2[nH]cc(CCNC(=O)Nc3ccc(F)cc3)c2c1 here?
A: inactive: 41.9%

Q: With CC(C)NS(=O)(=O)c1ccc(OCC(=O)N2CCN(c3ccccc3F)CC2)cc1 as the molecule, how does the activation read?
A: inactive: 11.3%

Q: Which activation does the source give for Cc1cc(C)c2c(CC(=O)Nc3nnc(CC(C)C)s3)coc2c1 here?
A: inactive: 10.4%

Q: How did the activation turn out when COc1ccc(CCCc2nnc(SCC(=O)Nc3ccc(C)c(C)c3)o2)cc1 was run?
A: inactive: 37.7%

Q: For CCc1ccc(S(=O)(=O)c2cn(C)c3cc(N4CCN(CC)CC4)c(F)cc3c2=O)cc1, which activation is on record?
A: inactive: 4.97%

Q: Which activation does the source give for CSc1cccc(NC(=O)c2ccc3c(c2)c(C)c(C)n3Cc2ccc(F)cc2)c1 here?
A: inactive: -16.9%

Q: How did the activation turn out when COc1ccccc1-c1c(C)nn2c(C(F)(F)F)cc(-c3ccccc3)nc12 was run?
A: inactive: -28.6%

Q: Which activation does the source give for Cc1ccc(CN2CCC(CNC(=O)Nc3c(C)cccc3C)C2)cc1 (stereo not drawn) here?
A: inactive: 6.23%

Q: How did the activation turn out when O=C(c1ccc(CS(=O)c2ccccc2Cl)o1)N1CCN(c2ccccc2F)CC1 (stereo not drawn) was run?
A: inactive: -0.928%

Q: With CN(C)CCN(Cc1ccc(Cl)cc1)c1ccccn1 as the molecule, how does the activation read?
A: inactive: 36.3%

Q: For COc1cccc(C(=O)N(Cc2cccc(Cl)c2)Cc2ccco2)c1, which activation is on record?
A: inactive: -3.01%

Q: Which activation does the source give for O=C(CCC1N=C2c3ccccc3N=C(SCc3cccc(Cl)c3)N2C1=O)NCc1cccs1 (stereo not drawn) here?
A: inactive: -5.43%

Q: CCC(=O)Nc1cccc(-c2cn3c(C)csc3n2)c1 was tested. Which activation did it give?
A: inactive: 17.1%

Q: Which activation does the source give for COc1cc(C(=O)NCCSc2c(-c3ccccc3)[nH]c3ccccc23)cc(OC)c1OC here?
A: inactive: -16.6%

Q: CC(C)(C)c1ccc(OCC(=O)Nc2c(C(=O)c3ccc(F)cc3)oc3ccccc23)cc1 was tested. Which activation did it give?
A: inactive: -6.67%

Q: How did the activation turn out when NS(=O)(=O)Cc1noc2ccccc12 was run?
A: inactive: 5.4%

Q: For CCOC(=O)c1ccccc1NC(=O)CSc1ncc2c(n1)-c1ccccc1N(CC)S2(=O)=O, which activation is on record?
A: inactive: -1.15%

Q: Which activation does the source give for CCC(C)n1c(=N)c(S(=O)(=O)c2ccccc2)cc2c(=O)n3ccccc3nc21 (stereo not drawn) here?
A: inactive: -7.23%

Q: With Cc1nn(C)c2c1c(-c1ccccc1)cc(=O)n2CC(=O)NC(C)(C)C as the molecule, how does the activation read?
A: active: 91.5%

Q: With COc1cc2nc(SCc3ccc(F)cc3)n3nc(CCn4c(C)nc5ccccc54)nc3c2cc1OC as the molecule, how does the activation read?
A: inactive: 11.2%

Q: Which activation does the source give for CCOc1ccccc1NC(=O)N1CCN(Cc2cc(=O)n3nc(-c4ccc(C)cc4)sc3n2)CC1 here?
A: inactive: 17.6%

Q: How did the activation turn out when CCOc1ccc(S(=O)(=O)N(CC(=O)NCCSCc2ccccc2)c2ccccc2)cc1 was run?
A: inactive: -1.95%

Q: O=C(c1ccc(CSc2nc3ccncc3n2Cc2ccccc2F)cc1)N1CCCCC1 was tested. Which activation did it give?
A: inactive: -5.74%
